From PubChem BioAssay AID1347165 (National Center for Advancing Translational Sciences (NCATS), 2019)
The campaign covered roughly 220,000 compounds. About 5,700 (2.6%) were called active. Inconclusive results, whose numbers are uncertain, are shown with a selection of clear calls. Calls follow the shape of the dose curve; as a rule, active = well fitted inhibition curve with a large enough effect; inconclusive = small, poorly fitted or top-dose-only effect; inactive = no such curve, though single readings can be large or run the other way. A potency beside an inconclusive call is a rough fit, not a confirmed value.

Target: Lysine-specific demethylase 5B (Homo sapiens) (UniProt Q9UGL1)
Experiment: Primary screen for KDM5B Histone Demethylases FDH-coupled qHTS; also: nearly all actives have a fitted effect of over 70% in size; as to activity change, negative = inhibition: 0% is about no effect
Details: FDH-coupled NADH fluorescence (FDH is formaldehyde dehydrogenase); activity change, negative = inhibition: at 57.7 µM (top of the series) unless noted
Summary of the method: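 Inhibition is measured as reduced NADH fluorescence generation from FDH coupling to formaldehyde release. Truncated KDM5BΔAP at 200 nM final acts on H3K4me3 peptide (12.5 µM in substrate mix) in pH 7.5 HEPES buffer with Tween-20, 30 min, room temperature.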
Potency is read from the fitted curve at half-maximal effect; tags tell the direction and shape of the fitted curve.

Sequence of UniProt Q9UGL1 (Q9UGL1 whole entry, looked up): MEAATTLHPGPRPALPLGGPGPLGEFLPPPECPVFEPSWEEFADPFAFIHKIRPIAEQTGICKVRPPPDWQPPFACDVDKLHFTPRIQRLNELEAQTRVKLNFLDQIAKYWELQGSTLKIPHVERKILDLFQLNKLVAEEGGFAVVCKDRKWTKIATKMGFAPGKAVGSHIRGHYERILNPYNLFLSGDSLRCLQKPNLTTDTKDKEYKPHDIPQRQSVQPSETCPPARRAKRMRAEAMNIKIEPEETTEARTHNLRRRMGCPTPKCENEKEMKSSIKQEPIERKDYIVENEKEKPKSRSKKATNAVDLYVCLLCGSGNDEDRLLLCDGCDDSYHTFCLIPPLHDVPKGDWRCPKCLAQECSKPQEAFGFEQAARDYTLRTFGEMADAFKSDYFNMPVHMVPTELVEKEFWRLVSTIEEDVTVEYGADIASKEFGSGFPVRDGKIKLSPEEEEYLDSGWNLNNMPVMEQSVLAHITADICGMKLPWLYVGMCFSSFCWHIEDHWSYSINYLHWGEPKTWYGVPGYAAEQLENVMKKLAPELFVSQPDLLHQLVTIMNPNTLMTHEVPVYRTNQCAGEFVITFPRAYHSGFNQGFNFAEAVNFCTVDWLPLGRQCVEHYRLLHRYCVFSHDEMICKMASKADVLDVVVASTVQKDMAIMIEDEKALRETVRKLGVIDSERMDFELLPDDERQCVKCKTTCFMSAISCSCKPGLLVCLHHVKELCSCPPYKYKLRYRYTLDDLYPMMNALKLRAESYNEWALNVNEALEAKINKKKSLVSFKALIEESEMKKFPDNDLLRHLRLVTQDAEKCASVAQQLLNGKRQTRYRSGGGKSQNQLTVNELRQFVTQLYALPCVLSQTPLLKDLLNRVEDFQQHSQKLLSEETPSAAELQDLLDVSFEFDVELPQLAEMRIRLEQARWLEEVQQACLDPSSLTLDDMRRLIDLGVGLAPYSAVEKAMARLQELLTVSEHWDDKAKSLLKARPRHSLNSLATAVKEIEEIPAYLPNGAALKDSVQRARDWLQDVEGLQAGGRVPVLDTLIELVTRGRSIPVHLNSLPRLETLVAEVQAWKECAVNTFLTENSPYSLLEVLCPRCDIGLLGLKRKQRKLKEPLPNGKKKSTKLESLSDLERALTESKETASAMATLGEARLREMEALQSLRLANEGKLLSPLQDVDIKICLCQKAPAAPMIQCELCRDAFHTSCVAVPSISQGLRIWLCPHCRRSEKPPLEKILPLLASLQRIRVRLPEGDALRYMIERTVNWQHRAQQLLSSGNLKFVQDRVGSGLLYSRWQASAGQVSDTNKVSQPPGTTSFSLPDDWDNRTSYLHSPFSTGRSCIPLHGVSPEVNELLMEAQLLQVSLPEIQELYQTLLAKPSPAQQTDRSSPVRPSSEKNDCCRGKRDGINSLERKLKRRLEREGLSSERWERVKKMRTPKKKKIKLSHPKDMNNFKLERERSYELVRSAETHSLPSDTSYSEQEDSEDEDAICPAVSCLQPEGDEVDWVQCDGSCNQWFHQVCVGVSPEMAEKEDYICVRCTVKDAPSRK

Row | Structure (SMILES) | Potency | activity change, negative = inhibition
1 | Cc1cc(C)cc(CC(CC(=O)O)C(=O)Nc2cccc(C(F)(F)F)c2)c1 (stereo not given) | inactive | 
2 | CCCCCCCCN1C(=O)[C@@H](CC(=O)NCC23CC4CC(CC(C4)C2)C3)C[C@@]2(C(=O)OC)C1=C[C@H](COCc1ccccc1)O[C@@H]2C | inconclusive: 25.1 µM [inhibitor, single point] | 
3 | CCOc1ccc(CCNC(=O)Cc2ccc(NC(=O)N3CCSc4ncccc43)cc2)cc1 | inconclusive: 35.5 µM [inhibitor, single point] | 
4 | O=C(c1nc(-c2ccc(Cl)cc2)c2cnccn12)N1CCOCC1 | active: 31.6 µM | 
5 | COc1cccc(CN2CCc3nc(N4CCN(C)CC4)ncc3C2)c1 | inconclusive: 39.8 µM [inhibitor, single point] | 
6 | NCc1cccc(-c2cncnc2)c1 | inconclusive: 112 µM [inhibitor, partial curve, poor fit] | 
7 | Cc1ccc(C#N)c(-c2cc(NCc3cccnc3)nc3[nH]ccc23)n1 | inconclusive: 28.2 µM [inhibitor, single point] | 
8 | COc1ccc(-n2c(SCC(=O)NCc3ccccc3)nc3n[nH]c(C)c3c2=N)cc1 | inconclusive: 39.8 µM [inhibitor, single point] | 
9 | CCCn1c(=O)c2sccc2n2c(CCCC(=O)Nc3ccccc3F)nnc12 | inconclusive: 28.2 µM [inhibitor, single point] | 
10 | CN(C)C(=O)c1cc(-c2ccc(S(C)(=O)=O)cc2)c2cnn(C)c2n1 | active: 79.4 µM | 
11 | O=C(Nc1ccccc1)c1cn(-c2ccc3c(c2)OCCO3)nn1 | inactive | 
12 | O=C1CC(c2cccc(F)c2)c2c(n3ncnc3[nH]c2=O)N1 (stereo not given) | inconclusive: 4.47 µM [inhibitor, partial curve, poor fit] | 
13 | CCc1ccc(NC(=O)c2ccc3c(c2)N(CC)C2CCCCN2C3=O)cc1 (stereo not given) | inconclusive: 35.5 µM [inhibitor, partial curve, poor fit] | 
14 | CCN1CCN(CCCNC(=O)c2ccc3c(c2)sc2nc(-c4ccc(C)cc4)cn23)CC1 | inconclusive: 39.8 µM [inhibitor, single point] | 
15 | COc1ccc(-c2ccc3nnc(CNC(=O)c4ccc(OC)nc4OC)n3n2)cc1 | active: 31.6 µM | 
16 | COc1ccc(-c2cc(C)no2)cc1S(=O)(=O)N1CC(C)Oc2ccccc21 (stereo not given) | inconclusive: 12.6 µM [inhibitor, partial curve, poor fit] | 
17 | COc1ccc(N2Cc3c(ncnc3N3CCOCC3)N(C)CC2=O)cc1 | inactive | 
18 | COc1ccccc1OCCn1c(C)nc2cc(C)c(C)cc21 | inactive | 
19 | O=C(CSc1nc(O)c(C/C=C/c2ccccc2)c(=O)[nH]1)Nc1cccc(F)c1 | inconclusive: 1.58 µM [inhibitor, full curve, poor fit] | 
20 | Cc1ccc(-c2ccc(C(=O)O)s2)cc1 | inconclusive: 22.4 µM [inhibitor, partial curve, poor fit] | 
21 | O=C1CO[C@H]2CCN(Cc3ccc4c(c3)CCO4)CC[C@@H]2N1Cc1ccccc1 | inconclusive: 1 µM [inhibitor, full curve, poor fit] | 
22 | CC(C)Cc1nc2nccc(-c3ccco3)n2n1 | active: 25.1 µM | 

Row | Structure (SMILES) | Potency | activity change, negative = inhibition
23 | CCN1CCC(NC(=O)c2ccc(S(=O)(=O)Nc3ccccc3)cc2)CC1 | inactive | 
24 | CCc1nc2c(c(-c3ccc(OC)cc3)n1)CCN(Cc1ccc(F)cc1)CC2 | inconclusive: 56.2 µM [inhibitor, single point] | 
25 | Cc1nn2c(=O)cc(COC(=O)c3ccc(NC(=O)c4ccc(C(C)(C)C)cc4)cc3)nc2s1 |  | inconclusive: -33.8% [inhibitor]
26 | CCOC(=O)c1cc2c(=O)n3ccccc3nc2n(CC2CCCO2)c1=NC(=O)c1ccccc1F (stereo not given) | inconclusive: 15.8 µM [inhibitor, partial curve, poor fit] | 
27 | Cc1nc([C@@H]2CN(C(=O)Cc3ccc(S(C)(=O)=O)cc3)C[C@H]2C(N)=O)n[nH]1 | inactive | 
28 | CNc1nc2c(c(C(=O)N3CCCC3)n1)CN(C(=O)C(C)n1cc(C)cn1)CC2 (stereo not given) | inconclusive: 28.2 µM [inhibitor, partial curve, poor fit] | 
29 | COc1cc(-c2nc3cnccn3c2Nc2ccc(C(C)C)cc2)ccc1O | inconclusive: 14.1 µM [inhibitor, partial curve, poor fit] | 
30 | Cc1ccc2c(c1)cc(C(=O)NCCOc1ccc(Cl)cc1)n2C | inconclusive: 31.6 µM [inhibitor, single point] | 
31 | CCN(CC)C(CNS(=O)(=O)c1ccc(C)cc1)c1ccsc1 (stereo not given) | inactive | 
32 | COC1CN(c2cccc(F)c2)C12CCN(C(=O)CC1CCCCC1)CC2 (stereo not given) | inactive | 
33 | CC(C)CNc1cccc2c1S(=O)(=O)N(Cc1cn(Cc3ccc(C(F)(F)F)cc3)nn1)Cc1ccccc1O2 | inconclusive: 12.6 µM [inhibitor, partial curve, poor fit] | 
34 | Cc1ccc(NC(=O)C(c2ccc(Cl)cc2)C(C)C)cc1F (stereo not given) | inconclusive: 20 µM [inhibitor, partial curve, poor fit] | 
35 | COc1ccc(NS(=O)(=O)c2ccc3c(c2)n(C)c(=O)c(=O)n3C)cc1Cl | inconclusive: 0.794 µM [inhibitor, full curve, poor fit] | 
36 | CCOc1ccc(CNc2nc(NCc3ccc(OCC)cc3)n(S(=O)(=O)CC)n2)cc1 | inconclusive: 39.8 µM [inhibitor, single point] | 
37 | COc1cc(Cl)c(NC(=O)CN(C)S(=O)(=O)c2ccc3[nH]c4c(c3c2)CCCC4)c(OC)c1 | inconclusive: 31.6 µM [inhibitor, partial curve, poor fit] | 
38 | COc1cccc(CNC(=O)c2cccc(NC(=O)c3nsc4ccccc34)c2)c1 | inconclusive: 39.8 µM [inhibitor, single point] | 
39 | Cc1cc(OCC(=O)Nc2ccc3oc(-c4cccnc4)nc3c2)cc(C)c1Cl | inconclusive: 14.1 µM [inhibitor, partial curve, poor fit] | 
40 | O=C1NCCCCCN(C(=O)c2ccco2)[C@@H]2C[C@@H](C(=O)N3CCc4ccccc4C3)C[C@H]12 | inconclusive: 12.6 µM [inhibitor, partial curve] | 
41 | CCCOC1CCCN(C(=O)c2ccc3nc(-c4ccc(F)cc4)cn3c2)C1 (stereo not given) | active: 28.2 µM | 
42 | COCCN1Cc2ccc(NCc3ccccc3)nc2C(C)(C(=O)Nc2ccn(C)n2)C1 (stereo not given) | active: 35.5 µM | 
43 | COc1cccc(N2CCN(C(=O)c3ccc4c(c3)C(O)CCCCCN4C)CC2)c1 (stereo not given) | inconclusive: 20 µM [inhibitor, partial curve, poor fit] | 
44 | CC(=O)NC1(C)CCN(Cc2ccccc2-c2ccc3ccccc3c2)C1 (stereo not given) | inconclusive: 39.8 µM [inhibitor, partial curve, poor fit] | 

Row | Structure (SMILES) | Potency | activity change, negative = inhibition
45 | CCNc1ncnc2sc3c(c12)CCN(C(=O)c1ccncc1)C3 | inconclusive: 31.6 µM [inhibitor, partial curve, poor fit] | 
46 | Cc1ccccc1CNC(=O)Cn1cc2c(n1)-c1c(oc(C(=O)N3CCCC3)c1C)CC2 | inconclusive: 3.98 µM [inhibitor, partial curve, poor fit] | 
47 | CCOCC(=O)N1CCC(N2CC(OCC3CC3)C23CCCCC3)CC1 (stereo not given) | inactive | 
48 | Cc1ccc2c(COC(=O)C3=NN(C)C(=O)CC3)cc(=O)oc2c1 | inactive | 
49 | CC(NC(=O)CSCc1cccs1)C1CCCO1 (stereo not given) | inactive | 
50 | C[C@@H](NC(=O)c1ccccn1)c1onc(-c2ccc(F)cc2)c1C(=O)O | inconclusive: 25.1 µM [inhibitor, partial curve] | 
51 | CCc1ccc(NC(=O)c2ccc3c(Cl)c4c(nc3c2)CCC4)cc1 | inactive | 
52 | O=C(O)c1cc2c(cc1NC(=O)C1CCCC1)OCCO2 | inconclusive: 20 µM [inhibitor, partial curve, poor fit] | 
53 | Cc1ccc(NC(=O)C2CC(=O)N(c3n[nH]c4cc(Br)ccc34)C2)cc1 (stereo not given) | inconclusive: 14.1 µM [inhibitor, partial curve] | 
54 | Cc1ccc(C)c(-c2cc3c(=O)n(CCNC(=O)c4ccc(N(C)C)cc4)ccn3n2)c1 | active: 35.5 µM | 
55 | CC(=O)Nc1ccc(NC(=O)c2ccc(C#CC3(O)CCCCC3)cc2)cc1 | inactive | 
56 | O=C(O)/C=C/c1ccc(-c2ccccc2)s1 | inconclusive: 35.5 µM [inhibitor, single point] | 
57 | COc1cccc(C(=O)/C(C#N)=C\c2ccc(OC(F)F)c(OC)c2)c1 | inconclusive: 39.8 µM [inhibitor, partial curve, poor fit] | 
58 | COc1ccc(C(NC(=O)Cn2c(=O)c3c(ncn3C)n(C)c2=O)C(C)C)cc1 (stereo not given) | inactive | 
59 | Cc1oc(-c2cccs2)nc1CN(CC(N)=O)C(C)C | inconclusive: 22.4 µM [inhibitor, single point] | 
60 | O=C(NCc1nnc2ccc(-c3ccc(F)cc3)nn12)c1ccoc1 | inconclusive: 28.2 µM [inhibitor, partial curve, poor fit] | 
61 | O=C(Cc1ccccc1Br)N1CCN(c2cc(-c3cccs3)[nH]n2)CC1 | inconclusive: 17.8 µM [inhibitor, partial curve] | 
62 | CCN(CC)Cc1cnc2c(C(=O)NC3(C(N)=O)CCCC3)cnn2c1 | inconclusive: 25.1 µM [inhibitor, single point] | 
63 | Cc1nccnc1N1CCC(c2nnc(CN3CCCC3)n2C)CC1 | inactive | 
64 | Cn1cc(CN2CCCCCCNC(=O)[C@@H]3CCC[C@@H]32)c2ccccc21 | inconclusive: 17.8 µM [inhibitor, partial curve, poor fit] | 
65 | COCCNC(=O)CCCN1C(=O)COc2ccc(C(=O)COc3ccccc3Cl)cc21 | inconclusive: 17.8 µM [inhibitor, partial curve] | 
